# Some of the results follow.
# B1: SialidaseA (Arthrobacter ureafaciens) (protein)
# chain: MRSNSTSAPSLVRRAATGVLTCAVSIGLLAGLGLPAQAAPTPPNSPTLPPGSFSETNLAADRTAANFFYRIPALTYLGNDVVLAAWDGRPGSAADAPNPNSIVQRRSTDGGKTWGPVQVIAAGHVADASGPRYGYSDPSYIYDAEANKVFAFFVYSKDQGFGGSQFGNDDADRNVISSAVIESSDAGVTWSQPRLITSVTKPGTSKTNPAAGDVRSNFASSGEGIQLKYGPHKGRLIQQYAGDVRQADGSNKIQAYSVYSDDHGVTWHKGANVGDRMDENKTVELSDGRVLLNSRDNANRGYRKVAVSTDGGATYGPVSQDTELPDPANNGAIARMFPNAAQGSADAKKLIFTNANSKTGRENVSARVSCDDGETWPGVRTIRSGFSAYSTVTRLADGKFGVLYEGNYTDNMPFATFDDAWLNYVCAPLAVPAVNIAPSATQEVPVTVTNQEATTLSGATATVYTPSGWSATTVPVPDVAPGASVTVTVALTAPADASGPRSLNAAFTTADGRVSQFTFTATTPVAPQVGLTITGSAPARDVAANPYQAGDVLGYTLNVKSTANVAANSVPLTGTFDSGFLPPAAPNCRYNNLAAGASYNCTTAKHTITAADMERGYFVPEATFSITSTTTPSLTKTVQFTGAAVALRDGLISADISGARTDVGRDLATRPYAAGELVPYAFTVKNTSPFVEQVVPTAGNFSPFLPAGAGNCRYLSLPAGQSYECATPRHAVTAEEVEQGFFVPDTTWEVSAAGQSTRTYRINGGEVDLLVRDAALSATVVAEWKDADGDRFASAGDPVTFTYTVGNAGNVALTGLEAPDAGISLPFLAPGDTATATREHVLTAADVAGGSLAASAFEATARNGSKEVTATAEGQPLELKVQPAQPSKEPELTVQDLEDQTPPFDLGTAFKYRTGQKVSLAGLEYGQWYYVYLNKTGYRLGWMFPTTGDTVEFILPPEVRNGRDDVVVLDKDGRRVSFDRLQVTPKGEKI
# Experiments:
# Test in all cases: glycan array binding signal (z-score within array); higher = stronger binding
# Conditions in all cases: glycan notation: IUPAC condensed, linker removed
# [1] = target: GlcNAc(b1-3)Gal(b1-4)GlcNAc(b1-3)Gal(b1-4)GlcNAc(b1-3)GalNAc
# Procedure, shortened: (§1)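 Glycan array binding is given as a within-array Z-score, which can be read as non-binding when negative. The arrays, 3228 of them, came from the Consortium for Functional Glycomics database and were retained only where the protein sequence was available. Z-scores were averaged across arrays of the same protein sequence at different concentrations or buffers and across linkers.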
# [2] = target: GlcNAc(b1-3)Gal(b1-4)GlcNAc(b1-3)GalNAc
# Procedure, shortened: as §1
# [3] = target: GlcNAc(b1-3)Gal(b1-4)GlcNAc(b1-3)[GlcNAc(b1-3)Gal(b1-4)GlcNAc(b1-3)]GalNAc
# Procedure, shortened: as §1
# [4] = target: GlcNAc(b1-3)Gal(b1-4)GlcNAc(b1-6)[Gal(b1-3)]GalNAc
# Procedure, shortened: as §1
# [5] = target: GlcNAc(b1-3)Gal(b1-4)GlcNAc(b1-6)[GlcNAc(b1-3)Gal(b1-3)]GalNAc
# Procedure, shortened: as §1
# [6] = target: GlcNAc(b1-3)Gal(b1-4)GlcNAc(b1-6)[GlcNAc(b1-3)]Gal(b1-4)GlcNAc
# Procedure, shortened: as §1
# GlcNAc(b1-3)GalNAc = target: GlcNAc(b1-3)GalNAc
# Procedure, shortened: as §1
# GlcNAc(b1-3)Man = target: GlcNAc(b1-3)Man
# Procedure, shortened: as §1
# [7] = target: GlcNAc(b1-3)[GlcNAc(b1-4)][GlcNAc(b1-6)]GlcNAc
# Procedure, shortened: as §1
# [8] = target: GlcNAc(b1-3)[GlcNAc(b1-6)]Gal(b1-4)GlcNAc
# Procedure, shortened: as §1
# [9] = target: GlcNAc(b1-3)[GlcNAc(b1-6)]GalNAc
# Procedure, shortened: as §1
# [10] = target: GlcNAc(b1-4)Gal(b1-4)GlcNAc
# Procedure, shortened: as §1
# GlcNAc(b1-4)GlcNAc = target: GlcNAc(b1-4)GlcNAc
# Procedure, shortened: as §1
# [11] = target: GlcNAc(b1-4)GlcNAc(b1-4)GlcNAc
# Procedure, shortened: as §1
# [12] = target: GlcNAc(b1-4)GlcNAc(b1-4)GlcNAc(b1-4)GlcNAc(b1-4)GlcNAc
# Procedure, shortened: as §1
# [13] = target: GlcNAc(b1-4)GlcNAc(b1-4)GlcNAc(b1-4)GlcNAc(b1-4)GlcNAc(b1-4)GlcNAc
# Procedure, shortened: as §1
# [14] = target: GlcNAc(b1-4)[GlcNAc(b1-6)]GalNAc
# Procedure, shortened: as §1
# [15] = target: GlcNAc(b1-6)Gal(b1-4)GlcNAc
# Procedure, shortened: as §1
# GlcNAc(b1-6)GalNAc = target: GlcNAc(b1-6)GalNAc
# Procedure, shortened: as §1
# [16] = target: GlcNAc6S(b1-3)Gal(b1-4)GlcNAc
# Procedure, shortened: as §1
# Kdn(a2-3)Gal(b1-3)GalNAc = target: Kdn(a2-3)Gal(b1-3)GalNAc
# Procedure, shortened: as §1
# Kdn(a2-3)Gal(b1-3)GlcNAc = target: Kdn(a2-3)Gal(b1-3)GlcNAc
# Procedure, shortened: as §1
# Kdn(a2-3)Gal(b1-4)Glc = target: Kdn(a2-3)Gal(b1-4)Glc
# Procedure, shortened: as §1
# Kdn(a2-3)Gal(b1-4)GlcNAc = target: Kdn(a2-3)Gal(b1-4)GlcNAc
# Procedure, shortened: as §1
# [17] = target: Kdn(a2-3)Gal(b1-4)[Fuc(a1-3)]GlcNAc
# Procedure, shortened: as §1
# Kdn(a2-6)Gal(b1-4)GlcNAc = target: Kdn(a2-6)Gal(b1-4)GlcNAc
# Procedure, shortened: as §1
# [18] = target: Man(a1-2)Man(a1-2)Man(a1-3)Man
# Procedure, shortened: as §1
# [19] = target: Man(a1-2)Man(a1-2)Man(a1-6)[Man(a1-3)]Man
# Procedure, shortened: as §1
# Man(a1-2)Man(a1-3)Man = target: Man(a1-2)Man(a1-3)Man
# Procedure, shortened: as §1
# [20] = target: Man(a1-2)Man(a1-3)[Man(a1-2)Man(a1-6)]Man
# Procedure, shortened: as §1
binder,measurement,setting,value
B1,glycan array binding signal (z-score),[1],-0.596
same,glycan array binding signal (z-score),[2],-0.21
same,glycan array binding signal (z-score),[3],-0.073
same,glycan array binding signal (z-score),[4],-0.581
same,glycan array binding signal (z-score),[5],-0.773
same,glycan array binding signal (z-score),[6],-0.712
same,glycan array binding signal (z-score),GlcNAc(b1-3)GalNAc,-0.842
same,glycan array binding signal (z-score),GlcNAc(b1-3)Man,-0.685
same,glycan array binding signal (z-score),[7],-0.598
same,glycan array binding signal (z-score),[8],-0.318
same,glycan array binding signal (z-score),[9],-0.754
same,glycan array binding signal (z-score),[10],-0.492
same,glycan array binding signal (z-score),GlcNAc(b1-4)GlcNAc,-0.666
same,glycan array binding signal (z-score),[11],-0.508
same,glycan array binding signal (z-score),[12],-0.744
same,glycan array binding signal (z-score),[13],-0.757
same,glycan array binding signal (z-score),[14],-0.568
same,glycan array binding signal (z-score),[15],-0.51
same,glycan array binding signal (z-score),GlcNAc(b1-6)GalNAc,-0.628
same,glycan array binding signal (z-score),[16],-0.672
same,glycan array binding signal (z-score),Kdn(a2-3)Gal(b1-3)GalNAc,1.22
same,glycan array binding signal (z-score),Kdn(a2-3)Gal(b1-3)GlcNAc,1.66
same,glycan array binding signal (z-score),Kdn(a2-3)Gal(b1-4)Glc,0.165
same,glycan array binding signal (z-score),Kdn(a2-3)Gal(b1-4)GlcNAc,1.14
same,glycan array binding signal (z-score),[17],0.943
same,glycan array binding signal (z-score),Kdn(a2-6)Gal(b1-4)GlcNAc,2.96
same,glycan array binding signal (z-score),[18],-0.731
same,glycan array binding signal (z-score),[19],0.26
same,glycan array binding signal (z-score),Man(a1-2)Man(a1-3)Man,-0.767
same,glycan array binding signal (z-score),[20],-0.413
